In the supplement of paper PMC10126150:
Sequences with one replicate were seen in a single cluster, so their values are uncertain.

Tested on: ATP
Assay: switch fluorescence ratio, 500 uM ATP over buffer (Cy3 cluster intensity, sum of 5 cycles each) (fold (ratio)); higher = stronger signal-on switching upon ATP binding; sequences stand for … in TCGTCGGCAGCGTCAGATGTGTATAAGAGACAGTTTTTTTTTTTTTTTTTTTTTTTTT…TC
Conditions: aptamer strand: ATP DNA aptamer (quencher-CACCTGGGGGAGTATTGCGGAGGAAGG + anchor), 100 nM annealed; ATP concentration: 500 uM; one replicate
Method in brief: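 For every switch-domain sequence, the fluorescence ratio is the mean of per-cluster values, each being summed target-cycle Cy3 intensity over summed buffer-cycle Cy3 intensity. Clusters outside 100-1000 RFU were excluded. On a modified Illumina MiSeq flow-cell, the Cy3-labelled switching-strand clusters were annealed to 100 nM quencher-labelled ATP aptamer, imaged in selection buffer and then after 15 min with 500 uM ATP at 22 °C. Five such cycles were run, with NaOH stripping and re-annealing between them.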
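Note: ATP exposure 15 min at 22 °C before imaging.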

Row | Sequence | switch fluorescence ratio
1 | CCATATGTTA | 0.963
2 | TCGGCGTAGT | 0.953
3 | TATACGGAAC | 1.33
4 | TCCTATTATA | 0.994
5 | GGCGTGGGCG | 0.898
6 | GTATTACAGA | 0.996
7 | TTGTGCGTCG | 0.965
8 | AATTAGAGTT | 0.99
9 | GGGTCAAGTT | 0.984
10 | TGCATAAAAT | 0.98
11 | GCAAAAACAG | 0.955
12 | AGGCTGCTTC | 1.04
13 | GAAACACCGT | 1.1
14 | CGCGAAATCC | 1.22
15 | GAGGGGAG | 0.967
16 | AATGACACTT | 1.02
17 | ATGCTTTAGG | 0.977
18 | AATTGAGAG | 0.959
19 | CTGGATGGAA | 1.01
20 | TCCAAGAAGT | 0.97
21 | ACCATAGGTG | 1.54
22 | CATTAGCACG | 0.986
23 | ATTGGGTTT | 0.987
24 | CTGAGGTCAT | 1.1
25 | TCGCAGCTGA | 1.73
26 | AATGTAGGAA | 0.994

Row | Sequence | switch fluorescence ratio
27 | CAGCACAAG | 1.05
28 | TATGTATCGT | 1
29 | TCGGGTCTGG | 0.992
30 | CGAGTTACGC | 0.948
31 | TGGCGTTGAA | 0.97
32 | CATTTGCTG | 0.981
33 | ATCAGCAAGG | 1.25
34 | AACCCCTTCT | 1.07
35 | ACGGTCTGGG | 1.02
36 | CTACCCTGGG | 1.11
37 | TATGGGTGAA | 1.04
38 | GTTCATGT | 1.01
39 | CGCGGACTAG | 0.981
40 | AATAGTGGAA | 0.999
41 | AGCCTTGGAG | 0.981
42 | GATTAGAATA | 1
43 | GATTGGAAAC | 1.1
44 | ACGGCTGAGG | 0.973
45 | AGGGCGTTA | 1
46 | GATATGACAA | 0.993
47 | CCATGACTCC | 1.58
48 | GGGCCGACTT | 1
49 | GGTGCAATGG | 4.89
50 | CTCCAGGTCT | 1.28
51 | ACCGCGGGAG | 1.05
52 | TGGAGCAACG | 1.38

Row | Sequence | switch fluorescence ratio
53 | TAAATAAACT | 0.998
54 | GTACCCTGAC | 1.38
55 | CATCGAGGTG | 1.06
56 | TTCGGGGCAA | 1.01
57 | TCCTCGTCAT | 2.54
58 | TGGGCTTCG | 1.02
59 | CGAAGTTCAT | 0.987
60 | TCCACCAGA | 1.21
61 | TCATTTGATC | 1.06
62 | AGTGTTGAAC | 1.08
63 | GGTAGTGATC | 1
64 | ATTAGAACTT | 1.08
65 | GGAAATTATG | 0.979
66 | ACTGGACACT | 1.14
67 | TCAACGGCTA | 1.05
68 | CCAGCCTCAC | 3.41
69 | CCTTCTTTGG | 1.04
70 | AGGCTTAGCT | 0.971
71 | ATCGCACGGG | 1.14
72 | TCTTTGTCCT | 1.01
73 | ATTCTTACGC | 0.968
74 | TGCTAGTTGC | 0.994
75 | GATTCTGTTA | 1.01
76 | ACTTAAGGGG | 1.04
77 | AGTTCCATCA | 0.992
78 | AATTTGCAGA | 0.963

Row | Sequence | switch fluorescence ratio
79 | ATTCTGTCAG | 0.997
80 | GATCCATCGG | 0.992
81 | CATGATGTGC | 0.936
82 | TTTTTAGTGA | 0.954
83 | ACGAGGAGAC | 1.05
84 | GCAGGGCTCC | 1.91
85 | GGCTATGCCA | 0.941
86 | GCAATCAGGG | 1.43
87 | ACGTAACTAA | 1.23
88 | CCTGCCGGTA | 1.19
89 | GTGTCAGCCT | 1.01
90 | TAACTATACA | 1.19
91 | CGAGGGAGTC | 1.03
92 | CATAAGGGTA | 1.02
93 | GATGAACTGT | 0.947
94 | TGGATAGTTC | 0.994
95 | TAATCGTTT | 1
96 | TTAACATG | 1.02
97 | TGGTGACAAT | 0.987
98 | TAAGTATGGA | 0.996
99 | GGGTTATTTA | 1.04
100 | TTAGACCCTA | 1.05
101 | GTTATGCTTT | 1.02
102 | CACTAAGTCC | 1.06
103 | TTTATGGTCT | 1.04
104 | CGAGCTCAGG | 1.97

Row | Sequence | switch fluorescence ratio
105 | CAATGATTAG | 1.02
106 | GGGCCATTTC | 0.959
107 | CAACGGAAAA | 1.08
108 | TAAGGTCGG | 0.918
109 | GGAGTAACGG | 0.976
110 | GATGTAGTAA | 1.01
111 | TCAGTCGAGT | 0.989
112 | TATTAATCCT | 1.05
113 | CGAATCGCGT | 0.984
114 | AATTAATGAG | 1.08
115 | GTTCATCAGT | 1
116 | CGCTGACTAT | 1.08
117 | TTGATTCGTC | 0.999
118 | CAGGATCTTT | 1
119 | TATCGATGAG | 0.989
120 | TTTCTGGGAT | 0.99
121 | CATCTATACT | 1.07
122 | TTTTACAC | 1.09
123 | TAAGTATTTG | 1.01
124 | CTTCCTCGTG | 1.49
125 | CAAATGCAGC | 1.07
126 | TACGGCC | 1.08
127 | TGCACCTCCT | 1.15
128 | CTCTCGCAGG | 2.84
129 | CGGTTCGAGC | 1.02
130 | TATTCGTAAG | 0.997

Row | Sequence | switch fluorescence ratio
131 | TCTGAGAC | 1.03
132 | CCTTTCACTG | 1.18
133 | GCCATAACAA | 0.95
134 | GGCGTTATTT | 0.956
135 | CCTGAAGGCT | 1.03
136 | TCGGAAGAGG | 0.99
137 | AAAATCAGTG | 1
138 | GCAATAATTG | 1.06
139 | AGTATAAATG | 0.975
140 | ACATTCCCGT | 1.12
141 | AGGGAAAAT | 1
142 | TAATCGGGCT | 0.985
143 | TCAGCCCTCG | 0.979
144 | AGTGCTCGAG | 0.971
145 | CGGGGCAGTC | 0.976
146 | CCGAAAATAA | 1.14
147 | ATAACAATGT | 0.982
148 | CACAGTGACG | 1.11
149 | AGCCCAGTTC | 1.04
150 | TCAAAATTCC | 1.41
151 | CCCCGGATGT | 1.75
152 | AAGTCGTAAA | 1.03
153 | TAGTCAAGTG | 0.991
154 | CTTCCAGCG | 1.17
